# Data: patent publication US9969812B2, “Anti human Notch4 antibody” (Eisai R&D Management Co., Ltd., priority 2015, dated 2018)
# T1: Human Notch4-NRR-SEAP-HA-His (Homo sapiens, UniProt Q99466)
# T1 construct: secretory alkaline phosphatase (SEAP) (C); HA (C); 10x His (C); made in house
# T1 sequence (Q99466 1046-1445): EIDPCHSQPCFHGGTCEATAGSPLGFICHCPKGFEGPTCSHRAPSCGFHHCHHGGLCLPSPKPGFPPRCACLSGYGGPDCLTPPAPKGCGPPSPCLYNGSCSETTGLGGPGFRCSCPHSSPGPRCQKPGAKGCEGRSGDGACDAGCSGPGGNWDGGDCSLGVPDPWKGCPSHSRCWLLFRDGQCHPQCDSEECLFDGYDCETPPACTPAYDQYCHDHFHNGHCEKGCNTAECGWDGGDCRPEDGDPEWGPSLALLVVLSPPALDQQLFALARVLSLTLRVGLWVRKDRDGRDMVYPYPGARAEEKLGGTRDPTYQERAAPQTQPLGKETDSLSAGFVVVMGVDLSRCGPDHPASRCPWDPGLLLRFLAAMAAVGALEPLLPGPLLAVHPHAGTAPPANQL
# B1: Antibody B: humanized anti-human Notch4 antibody, heavy chain variable region HK3, light chain variable region L3, C-terminal Lys deleted (antibody)
# heavy: EVQLVESGGGLVQPGGSLRLSCAASGFTFSSYGMSWVRQAPGKGLELVATINSNGGRTYYPDSVKGRFTISRDNSKNTLYLQMGSLKAEDMAVYYCARDQGFAYWGQGTLVTVSSASTKGPSVFPLAPCSRSTSESTAALGCLVKDYFPEPVTVSWNSGALTSGVHTFPAVLQSSGLYSLSSVVTVPSSNFGTQTYTCNVDHKPSNTKVDKTVERKCCVECPPCPAPPAAAPSVFLFPPKPKDTLMISRTPEVTCVVVDVSHEDPEVQFNWYVDGVEVHNAKTKPREEQFNSTFRVVSVLTVVHQDWLNGKEYKCKVSNKGLPAPIEKTISKTKGQPREPQVYTLPPSREEMTKNQVSLTCLVKGFYPSDIAVEWESNGQPENNYKTTPPMLDSDGSFFLYSKLTVDKSRWQQGNVFSCSVMHEALHNHYTQKSLSLSPG
# light: EIVMTQSPATLSVSPGERATLSCKASQDVGTAVAWYQQKPGQAPRLLIYWASTRHTGIPARFSGSGSGTEFTLTISSLQSEDFAVYYCQQYSSYPWTFGQGTKVEIKRTVAAPSVFIFPPSDEQLKSGTASVVCLLNNFYPREAKVQWKVDNALQSGNSQESVTEQDSKDSTYSLSSTLTLSKADYEKHKVYACEVTHQGLSSPVTKSFNRGEC
# Legend:
# [1] = system: Calu6 xenograft (human non-small cell lung cancer cell line); assay: Calu6 xenograft model: antitumor effect and blood perfusion; type: in vivo, nude mice; details: 1, 3 or 10 mg/kg tail vein
# Protocol: Human non-small cell lung cancer cell line Calu6 (ATCC number HTB-56) cultured in an EMEM culture medium comprising 10% FBS, MEM non-essential amino acids, sodium pyruvate, and penicillin/streptomycin was prepared to a concentration of 1.6×10^8 cells/mL with EMEM culture medium, and mixed with Matrigel™ (CORNING Cat#354234) at 1:1 to prepare a cell suspension of 8.0×10^7 cells/mL.
# Antibody B was diluted immediately before administration so that vehicle solution (25 mM Histidine, 250 mM Sucrose, and 0.05% Tween80 (pH5.3)) and saline is 1:9 to obtain 0.1, 0.3, and 1.0 mg/mL evaluation specimens (1, 3, and 10 mg/kg administration group, respectively). […] Relative tumor volume RTV was calculated for each of the Control IgG group and Antibody B administration group with the following formula and shown in FIG. 2A. […]
# Tumor blood perfusion was evaluated by determining the fluorescence by nucleus staining of cells around blood vessels due to a fluorescent dye (Hoechst) injected in the tail vein (Funahashi et al. (2014), Cancer Sci., 105(10), 1334-42.). […]
# Tumor blood vessels of frozen sections were subjected to immunofluorescent staining with anti-CD31 antibody (FITC conjugated, BD Pharmingen Cat#553372), and Hoechst fluorescence of tumor blood vessel hotspots (5 per tumor) were photographed with BIOREVO fluorescence microscope (KEYENCE, BZ-9000). […]
# [2] = target: T1, Human Notch4-NRR-SEAP-HA-His; assay: BIAcore T100 kinetics analysis, Antibody B captured, human Notch NRR domain injected; type: binding
molecule,measurement,setting,value
B1,blood perfusion suppressive effect (Hoechst fluorescence area),"[1]; tumors sampled Day 8, vs Control IgG",significant blood perfusion suppressive effect at all dosages
same,antitumor effect (relative tumor volume RTV),"[1]; twice a week, vs Control IgG 10 mg/kg",significant antitumor effect at all dosages
same,Ka,[2],27200 M⁻¹ s⁻¹
same,Kd,[2],0.000831 s⁻¹
